# Source: PubChem BioAssay AID485344 (National Center for Advancing Translational Sciences (NCATS), 2010)
# In all, about 340,000 compounds went through this assay and about 6,900 (2%) were called active. No stated cut-off is given here; in the data, active means inhibition above about 30%; inactive means below that, where a call was filed. This is a selection; strong and weak results do not stand in their true shares. Entries without a call were filed so in the source.
# Target: D(2) dopamine receptor (Homo sapiens) (UniProt P14416)
# Chain of UniProt P14416 (P14416 whole entry, looked up): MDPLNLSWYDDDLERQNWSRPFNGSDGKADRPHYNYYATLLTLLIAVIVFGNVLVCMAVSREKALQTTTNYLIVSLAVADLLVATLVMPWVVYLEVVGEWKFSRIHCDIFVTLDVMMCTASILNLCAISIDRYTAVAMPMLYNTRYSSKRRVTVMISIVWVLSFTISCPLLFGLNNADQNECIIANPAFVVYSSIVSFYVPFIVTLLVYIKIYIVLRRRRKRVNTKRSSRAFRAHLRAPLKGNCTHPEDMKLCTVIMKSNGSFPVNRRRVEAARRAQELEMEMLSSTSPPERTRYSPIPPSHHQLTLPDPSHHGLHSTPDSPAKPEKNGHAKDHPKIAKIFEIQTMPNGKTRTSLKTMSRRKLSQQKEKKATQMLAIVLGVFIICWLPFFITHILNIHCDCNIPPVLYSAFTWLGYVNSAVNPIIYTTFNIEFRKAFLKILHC
# Assay: HTS Assay for Allosteric Antagonists of the Human D2 Dopamine Receptor: Primary Screen for Antagonists; further: 0% is about no effect
# Conditions: HEK293 TREx D2 cells, calcium flux, dopamine EC80; at 10 µM; stronger effect = higher value
# Method in brief: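 Measurement of antagonist activity uses fluorescent calcium dye in inducible HEK293 T-REx D2 cells: 10 s baseline, compound addition with 180 s read, EC80 dopamine addition with a further 180 s read.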
row,Structure (SMILES),inhibition
1,COc1ccc(OC)c(-c2cc(C(=O)Nc3cc(C)on3)no2)c1,active: 38.2%
2,CCOC(=O)c1[nH]c(C)c(CCC(=O)NCc2ccc(OC(C)C)cc2)c1C,10.8%
3,Cc1ccc(CNS(=O)(=O)c2c(C(=O)N3CCC(C)CC3)c(C)n(C)c2C)cc1,4.18%
4,COc1ccc(C)cc1NC(=O)C1CCN(S(=O)(=O)c2cccc3nonc23)CC1,-13%
5,COc1ccc(OC)c(NC(=O)c2nc(SCc3ccc(F)cc3)ncc2Cl)c1,-26.8%
6,O=C(NCCc1csc(-c2ccc(F)cc2)n1)C(=O)Nc1ccc(Cl)cc1,-10.3%
7,O=C(/C=C/c1cn(CC(O)CN2CCc3ccccc32)c2ccccc12)c1ccc(Br)cc1 (stereo unspecified),-0.82%
8,CCC(=O)N1c2ccc(S(=O)(=O)NCCc3ccccc3)cc2CC1C (stereo unspecified),1.89%
9,CC(C)NC(=O)COc1coc(CN2CCN(C(=O)c3ccco3)CC2)cc1=O,active: 49.7%
10,Cc1cc(C)cc(N2C(=O)CS(=O)(=O)C23C(=O)N(Cc2ccccc2)c2ccccc23)c1 (stereo unspecified),10.4%
11,Cc1cc(OCC(=O)Nc2ncn[nH]2)c(C)c(C)c1Br,6.49%
12,COc1nnc(-c2ccc(N3CCCCC3)c(NC(=O)c3ccc(Cl)cc3)c2)c2ccccc12,-2.7%
13,COc1ccc(-c2cc(C(F)(F)F)nc(SCC(=O)Nc3ccc(C(C)=O)cc3)n2)cc1,-12.4%
14,CCOC(=O)C1CCN(c2ncnc3c2c(-c2ccccc2)cn3-c2ccc(C)c(Cl)c2)CC1,2.05%
15,Cc1nn(-c2ccc(C(=O)N3CCN(S(=O)(=O)c4ccccc4C(F)(F)F)CC3)cc2)c(C)c1Cl,active: 56.3%
16,CCc1cc(=O)[nH]c(SCc2nc(-c3ccccc3C)no2)n1,-0.699%
17,COc1cccc2sc(N(Cc3cccnc3)C(=O)c3ccc(S(=O)(=O)N(C)C)cc3)nc12,5.95%
18,CCOC(=O)C1CCCN(C(=O)C2CCN(S(=O)(=O)c3c(C)noc3/C=C/c3ccc(C)cc3)CC2)C1 (stereo unspecified),2.49%
19,COc1ccccc1CNC(=O)c1cc2cc(S(=O)(=O)N3CCCCC3)ccc2n1C,4.37%
20,O=C(O)c1ccccc1NC(=O)N1c2ccccc2Sc2ccccc21,5.32%
21,CC1CCCN(Cc2c(O)ccc3c(=O)c(-c4ccc(Cl)cc4)c(C(F)(F)F)oc23)C1 (stereo unspecified),-19.4%
22,COc1cc2c(cc1OC)C(c1cc(OC)c(O)c(OC)c1)CC(=O)N2 (stereo unspecified),1.76%
23,Cc1nc2c(C(=O)NCCC(C)C)cnn2c(C)c1Cc1c(F)cccc1Cl,3.8%
24,COc1ccc2c(c1)c1c(c(=O)n(-c3ccc(C)cc3)c(=O)n1CC(=O)Nc1cc(C)ccc1C)n2C,4.25%
25,COc1ccc2ccccc2c1CN1CCN(C)CC1,active: 39.8%
26,Cc1cccc(C(=O)NC(=O)Nc2ccc(-n3nc(C(F)(F)F)cc3C(F)(F)F)cc2)c1,-2.49%
